# In publication PMC4336329 (PLoS ONE, 2015):
# In all, about 310,000 compounds went through this assay and about 14,000 (4.5%) showed an effect of 50% or more. Effects have a minus sign here. This is one part of the list.
# Biological target: human ether-à-go-go-related gene (hERG) potassium channel (human, UniProt Q12809)
# Test: primary screen, population patch clamp on CHO cells stably expressing hERG
# 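Also: peak tail current of the secondary pulse compared with the same well before compound.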
# Chain of human ether-à-go-go-related gene (hERG) potassium channel (Q12809 whole entry, looked up): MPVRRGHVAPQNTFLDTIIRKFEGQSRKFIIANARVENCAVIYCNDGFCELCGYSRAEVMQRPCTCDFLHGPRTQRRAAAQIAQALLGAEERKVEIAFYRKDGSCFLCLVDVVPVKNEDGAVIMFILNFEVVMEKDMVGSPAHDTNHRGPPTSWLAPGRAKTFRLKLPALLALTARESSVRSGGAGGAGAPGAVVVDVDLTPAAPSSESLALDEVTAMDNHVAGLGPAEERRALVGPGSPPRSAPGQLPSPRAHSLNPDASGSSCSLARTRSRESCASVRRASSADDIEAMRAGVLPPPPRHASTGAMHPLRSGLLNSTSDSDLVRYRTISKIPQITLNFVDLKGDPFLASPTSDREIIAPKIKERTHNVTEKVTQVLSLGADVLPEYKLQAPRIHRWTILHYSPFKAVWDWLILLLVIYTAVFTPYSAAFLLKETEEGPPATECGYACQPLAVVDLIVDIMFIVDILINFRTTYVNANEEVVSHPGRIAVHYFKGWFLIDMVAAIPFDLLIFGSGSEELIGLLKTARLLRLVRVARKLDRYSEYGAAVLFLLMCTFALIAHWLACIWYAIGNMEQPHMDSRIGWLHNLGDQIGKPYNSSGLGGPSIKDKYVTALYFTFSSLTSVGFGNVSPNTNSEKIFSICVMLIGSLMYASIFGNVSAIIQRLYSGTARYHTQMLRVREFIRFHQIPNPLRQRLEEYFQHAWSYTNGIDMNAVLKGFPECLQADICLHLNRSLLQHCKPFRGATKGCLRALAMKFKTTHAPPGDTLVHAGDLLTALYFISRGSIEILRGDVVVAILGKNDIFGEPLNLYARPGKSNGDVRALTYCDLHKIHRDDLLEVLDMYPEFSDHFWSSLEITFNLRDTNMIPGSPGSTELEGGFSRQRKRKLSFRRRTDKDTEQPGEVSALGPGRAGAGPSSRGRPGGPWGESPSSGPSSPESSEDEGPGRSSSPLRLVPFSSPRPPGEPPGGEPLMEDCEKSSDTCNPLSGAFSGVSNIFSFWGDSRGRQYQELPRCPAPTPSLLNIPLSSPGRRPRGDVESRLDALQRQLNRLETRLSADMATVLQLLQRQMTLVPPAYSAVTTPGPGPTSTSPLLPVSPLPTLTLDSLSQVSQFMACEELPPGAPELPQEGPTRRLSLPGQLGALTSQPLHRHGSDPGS
row,Compound,"hERG current change (%, negative = inhibition) at 10uM"
1,COCCCN1C(=O)C(=O)/C(=C(/O)c2ccccc2)C1c1ccc2c(c1)OCO2 (stereo not drawn),11.4%
2,O=C(Nc1ccc(C(=O)O)cc1)/C(=C\C=C\c1ccccc1)NC(=O)c1ccc(Br)cc1,3.91%
3,Cc1[nH]nc2c1C(c1cccs1)C(C#N)=C(N)O2 (stereo not drawn),5.07%
4,O=C(O)c1ccccc1C(=O)c1ccc2c(c1)CCC2,22.3%
5,CCOc1ccc(CCN2C(=O)c3ccc(C(=O)O)cc3C2=O)cc1OCC,-3.15%
6,CN1C(=O)c2ccccc2C(C(=O)NCc2ccco2)C1c1c[nH]c2ccccc12 (stereo not drawn),-12.2%
7,CNc1nc(NN)nc(Nc2ccccc2)n1,9.76%
8,Cc1cc(C)c2nc(SCC(=O)NCCC3=CCCCC3)cc(C)c2c1,9.92%
9,CCN(CC)c1ccc(NC(=O)CSc2nc(C)cc(=O)[nH]2)cc1,7.77%
10,CCCCC(CC)C(=O)NCCCN1CCN(CCCNC(=O)C(CC)CCCC)CC1 (stereo not drawn),-18.3%
11,COc1ccc(NC(=S)N2CCN(S(=O)(=O)c3ccccc3)CC2)cc1OC,0.832%
12,CC(C)C(OC(=O)c1ccco1)C(=O)NCc1ccc2c(c1)OCO2 (stereo not drawn),-15.3%
13,Cc1cccc(-n2c(C)nc3c(cnn3-c3ccc(F)cc3)c2=O)c1,-12.6%
14,O=C(CCCCCCCC(=O)NNC(=O)Nc1ccccc1)NNC(=O)Nc1ccccc1,12.2%
15,CCCCCN(C(=O)CCC(=O)OCc1ccc(C(C)C)cc1)c1c(N)n(CCCC)c(=O)[nH]c1=O,0.783%
16,CCOC(=O)CNS(=O)(=O)Cc1ccccc1,6.87%
17,COc1ccccc1C1=NOC(COc2ccc3c(C)cc(=O)oc3c2)C1 (stereo not drawn),-6.41%
18,COc1cc(O)c(C(CC(=O)N2CCN(c3ccccc3)CC2)c2ccc3c(c2)OCO3)c(OC)c1 (stereo not drawn),11.9%
19,COc1ccc(CC(=O)OCC(=O)Nc2ccc(N3CCOCC3)cc2)cc1,-11.8%
20,CCCC[N+]1(C)C2CC(OC(=O)C(CO)c3ccccc3)CC1C1OC12.[Br-] (stereo not drawn),3.26%
21,Cc1ccccc1NC(=S)NC(NC(=O)COc1ccccc1)C(Cl)(Cl)Cl (stereo not drawn),22.1%
22,CCOc1ccc(NC(=O)C(NC(=O)C2CCC(C)CC2)C(C)C)cc1 (stereo not drawn),11.7%

row,Compound,"hERG current change (%, negative = inhibition) at 10uM"
1,CCSc1ccc2nnc(-c3ccc(F)cc3)n2n1,-55.6%
2,CCc1nnc2n1N=C(c1ccc(OC)cc1)CS2,-28.1%
3,CN(C)S(=O)(=O)N1CCC(Oc2cccc(C(=O)N3CCCCCCC3)c2)CC1,4.1%
4,CC(=O)N1CCN(C(=O)c2ccc(Cl)c(S(=O)(=O)N3CCc4ccccc43)c2)CC1,-27%
5,Cc1ccc(C(c2c(C)n(C)n(-c3ccccc3)c2=O)c2c(C)n(C)n(-c3ccccc3)c2=O)s1,-4.34%
6,COc1cccc(C(c2nnnn2Cc2ccccc2)N2CCN(C(=O)c3ccco3)CC2)c1OC (stereo not drawn),-30.2%
7,O=C(N[C@H]1CC1c1ccccc1)c1ccc([N+](=O)[O-])cc1 (stereo partly drawn),-6.56%
8,Cc1onc(C(=O)/C=C/N(C)C)c1C(=O)Nc1nccs1,8.26%
9,COc1ccc(C(=O)NCCN2CCCC2)cc1[N+](=O)[O-],-15.2%
10,Cl.Cn1nnnc1SCCNCc1ccccc1F,-0.9%
11,CCCCCC(=O)NC(NC(=S)N1CCOCC1)C(Cl)(Cl)Cl (stereo not drawn),6.03%
12,C=Cc1ccc(CSc2cc(C)nc3nc(C)nn23)cc1,-36.2%
13,O=C(N/N=C/c1ccccc1)c1n[nH]c2c1CCCC2,10.9%
14,O=C(CN1C(=O)NC2(CCCCCC2)C1=O)Nc1ccc(Cl)cc1Cl,3.07%
15,Cc1nc2nc(SCC(=O)NCCCN3CCCCC3)nn2c(C)c1Cc1ccccc1,-4.98%
16,COc1ccc(OC)c2c(C)cc(N3CCN(C(=O)c4ccc(F)cc4)CC3)nc12,-20.8%
17,COc1ccc(C(CNC(=O)COc2ccccc2C)N2CCCCC2)cc1 (stereo not drawn),-20.7%
18,Cc1ccnc(NC(=O)CC(NC(=O)c2ccccc2Cl)c2ccccc2)c1 (stereo not drawn),-16.3%
19,CNC(=O)CN(Cc1ccccc1)S(=O)(=O)c1ccc(Cl)cc1,-11.4%
20,CC(OC(=O)c1nsc(Cl)c1Cl)C(=O)NC(C)(C)C (stereo not drawn),14.9%
21,O=C(O)c1sccc1NC(=O)c1c(Cl)cccc1Cl,5.11%
22,O=C(Nc1ccccc1)N1CCCc2ccccc21,-79.2%

row,Compound,"hERG current change (%, negative = inhibition) at 10uM"
1,COc1ccc(C(=O)NC(C)c2nnc(SCC(=O)NC3CCCC3)n2C)cc1 (stereo not drawn),4.98%
2,CC(=O)N1CCN(S(=O)(=O)c2cccc(C(=O)NCCC3=CCCCC3)c2)CC1,-8.54%
3,COC(=O)C1C(=O)c2c([nH]c(C(=O)OC3CCCC3)c2C)CC1C (stereo not drawn),-3.87%
4,O=c1c2ccccc2nc(Cc2ccccc2)n1-c1ccccc1,-20.9%
5,COC(=O)c1ccccc1NC(=O)CSc1nc2ncccc2[nH]1,13.5%
6,Cn1cccc1C(=O)/C(C#N)=C/c1ccc(F)cc1,4.01%
7,COc1ccc(-c2cc(C3CCN(Cc4ccc([N+](=O)[O-])cc4)CC3)[nH]n2)cc1,-73%
8,O=C(Nc1ccc(Cl)cn1)c1ccc(COc2ccccc2Br)o1,8.82%
9,CC(=O)Nc1ccc(S(=O)(=O)NCC(=O)OCC(=O)N2CCCCCC2)cc1,6.34%
10,CCOc1ccc(NC(=O)CSc2nc3ccccc3c(=O)n2CCCC(=O)NCC2CCCO2)cc1 (stereo not drawn),3.34%
11,CCCn1c(SC2C(=O)CC(C)(C)CC2=O)nc2c1c(=O)n(C)c(=O)n2C,8.98%
12,O=C(CCCCCNC(=O)c1ccccc1)N=Nc1c(O)[nH]c2c(Br)cc(Br)cc12,-9.32%
13,CC1(C(=O)NNC(=S)NCc2ccco2)CC1(Cl)Cl (stereo not drawn),29%
14,O=C(Nc1ccc(N2CCCC2)c(Cl)c1)c1cccnc1,-12.6%
15,O=C(CNC(=O)/C=C/c1ccccc1)N=Nc1c(O)n(Cc2ccccc2)c2ccccc12,-35.4%
16,CC1CCCC(NC(=O)CN(C)CC(=O)Nc2cccc(F)c2)C1C (stereo not drawn),9.81%
17,COC(=O)c1c(C)[nH]c(C(=O)NCc2ccco2)c1C,0.67%
18,Cc1ccc(CCNC(=O)c2cc(-c3ccncc3)nc3ccccc23)cc1,-6.88%
19,Cc1ccc(C(C)C)c(OCCCNCc2cccnc2)c1.Cl,-37.5%
20,COCCN(C(=O)C1CCC1)c1nnc(-c2cccnc2)s1,-0.683%
21,COc1ccc(CCNC(=O)c2ccc(CS(=O)(=O)c3ccc(Cl)cc3)o2)cc1OC,-11.7%
22,Cc1ccccc1C(=O)Nc1ccccc1C(=O)N1CCC(C)CC1,9.34%

row,Compound,"hERG current change (%, negative = inhibition) at 10uM"
1,CCOCCCNC(=S)N(Cc1ccco1)Cc1cc2cc3c(cc2[nH]c1=O)OCCO3,-11.7%
2,COc1ccc(OCc2ccc(-c3nc4ccccc4c(=O)n3N)o2)cc1,-23.5%
3,CCOC(=O)N1CCN(C(=O)COC(=O)C2CCN(S(=O)(=O)c3c(C)c(C)cc(C)c3C)CC2)CC1,-51.9%
4,COC(=O)c1sc2nc(SCC(=O)N(C)c3ccccc3)n(N)c(=O)c2c1C,27.4%
5,Cc1cccc(N2C(=O)CC(Sc3nc(C)cc(C)n3)C2=O)c1 (stereo not drawn),13.5%
6,COc1ccc(CC(=O)Nc2cccc(/C(C)=N/NC(=O)c3cccc([N+](=O)[O-])c3)c2)cc1,-13.2%
7,COc1ccc(NC(=O)C(C)SCc2ccccc2)cc1OC (stereo not drawn),-1.56%
8,COc1ccc(C(=O)NNC(=O)c2ccc3ccccc3c2O)cc1,19.6%
9,O=C(NC(=S)NCCN1CCOCC1)c1ccccc1,-8.04%
10,COc1cc2ncc(S(=O)(=O)c3ccccc3)c(N3CCCC(C)C3)c2cc1OC (stereo not drawn),-7.67%
11,CN(c1ccccc1)S(=O)(=O)c1cccc(NC(=O)CC(C)(C)C)c1,-11.4%
12,COc1ccc2oc(C(=O)NCCc3ccccc3)c(C)c2c1,3.17%
13,Cc1cccc(N2CCN(Cc3nc(-c4cccc(Cl)c4)oc3C)CC2)n1,-21%
14,CS(=O)(=O)N(CC(=O)N1CCN(Cc2ccccc2)CC1)C1CCCCC1,-14.1%
15,CN(c1ccccc1)c1nc(N)c([N+](=O)[O-])c(Nc2ccccc2)n1,21.4%
16,CCCNC(=O)c1ccc2c(=O)c(O)c(-c3cccc(Br)c3)[nH]c2c1,-13.8%
17,CO/C=C/C#CC1(O)CCN(C)CC1,5.64%
18,O=c1[nH]c2ccc(Br)cc2c(-c2ccccc2)c1N1CCOCC1,7.5%
19,COCC(C)NC(=O)c1ccc2c(c1)S(=O)(=O)c1ccccc1C2=O (stereo not drawn),3.96%
20,COc1ccc(C(=O)NNC(=O)C(=O)/C=C(\O)c2ccc(C)cc2)cc1,-8.76%
21,CC(C)(C)OC(=O)NCCc1nnc(SCc2c(Cl)cccc2Cl)o1,-8.33%
